Consider one molecule from PMC4475061 (2015).

For orientation: Kd means the concentration at which binding is half-saturated. Read a low Kd as tighter binding.

The experiment has as its target T1, ULK3(MIT)2 (residues 277–449) (human, UniProt Q6PHR2 277-449).
T1 chain: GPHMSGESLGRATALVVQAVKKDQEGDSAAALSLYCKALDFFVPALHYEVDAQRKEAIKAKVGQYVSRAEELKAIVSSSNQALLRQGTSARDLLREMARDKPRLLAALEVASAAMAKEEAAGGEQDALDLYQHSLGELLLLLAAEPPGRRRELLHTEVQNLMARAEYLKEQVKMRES
The experiment can be described thus: FP.

B1: IST1 MIM1 peptide ([…]), fluorescently labeled (peptide)
chain: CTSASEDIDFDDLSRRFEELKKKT
modifications: Oregon Green 488 maleimide on the non-native N-terminal cysteine
In turn, B1 came in with a Kd of 560 nM.
